About 2,200 (0.56%) of roughly 390,000 compounds were called active. Inconclusive results, whose numbers are uncertain, are shown with a selection of clear calls. Calls follow the shape of the dose curve; as a rule, active = well fitted inhibition curve with a large enough effect; inconclusive = small, poorly fitted or top-dose-only effect; inactive = no such curve, though single readings can be large or run the other way. Potencies of inconclusive entries are doubtful fits and often do not repeat.
These compounds were tested against Chromobox protein homolog 1 (Homo sapiens) (UniProt P83916) (assay: HTS for Inhibitors of HP1-beta Chromodomain Interactions with Methylated Histone Tails). Conditions: AlphaScreen HP1-beta / biotin-H3K9me3 peptide binding; series mostly up to 114 µM.
Procedure, shortened: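 HP1-beta protein (50 nM final) preincubated 30 min at room temperature with biotinylated H3(1-18)K9me3 peptide (50 nM) in PBS pH 7.4, 0.01% Tween-20, then compound added for 30 min. AlphaScreen streptavidin donor/nickel chelate acceptor beads (10 ug/mL final), 30 min dark, luminescence read.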
Also: nearly all actives have a fitted effect of over 70% in size.
Potency is read from the fitted curve at half-maximal effect; tags tell the direction and shape of the fitted curve.

Chain of UniProt P83916 (P83916 whole entry, looked up): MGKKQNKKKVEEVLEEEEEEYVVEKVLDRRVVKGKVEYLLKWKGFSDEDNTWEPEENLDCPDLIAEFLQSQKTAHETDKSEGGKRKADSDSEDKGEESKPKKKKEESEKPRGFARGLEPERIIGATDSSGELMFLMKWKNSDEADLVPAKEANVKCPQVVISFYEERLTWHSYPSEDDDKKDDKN

Row | Structure (SMILES) | Potency
1 | [O-]/C(=C(\C(=S)Nc1cccc2ccccc12)[n+]1ccccc1)c1cccs1 | inconclusive: 22.4 µM [inhibitor, full curve]
2 | CCCCN(CCCC)CC(O)COc1ccc(Br)cc1 (stereo not drawn) | inconclusive: 89.1 µM [inhibitor, single point]
3 | O=c1c(CN2CCN(Cc3ccccc3F)C(CCO)C2)coc2ccccc12 (stereo not drawn) | inactive
4 | COc1ccc(S(=O)(=O)N2CCN(CC(=O)Nc3c(C)n[nH]c3C)CC2)cc1OC | inconclusive: 15.8 µM [inhibitor, full curve, poor fit]
5 | CN1CCN(CC(=O)NN(Cc2ccccc2)c2ccccc2)CC1 | inconclusive: 25.1 µM [inhibitor, full curve]
6 | CCOC(=O)c1c(NC(=O)c2cc(CC(C)C)on2)sc(C(C)=O)c1C | inactive
7 | CN1CCCCc2c1nc1c(c2N)CCCC1 | inconclusive: 56.2 µM [inhibitor, single point]
8 | O=C(C/C=N/OCc1c(Cl)cccc1Cl)c1ccccc1 | inconclusive: 31.6 µM [inhibitor, single point]
9 | Cc1cc(C)n(-c2nnc(NC34CC5CC(CC(C5)C3)C4)nn2)n1 | inconclusive: 22.4 µM [inhibitor, full curve, poor fit]
10 | O=C(Cn1c2ccccc2c(=O)c2ccccc21)N/N=C/c1ccc(N2CCCC2)c([N+](=O)[O-])c1 | inactive
11 | COc1ccc(CCNC(=O)CNCC2CCCO2)cc1OC (stereo not drawn) | inconclusive: 12.6 µM [inhibitor, full curve, poor fit]
12 | COCc1nnc(NC(=O)c2cc(OC)c(OC)cc2[N+](=O)[O-])s1 | inconclusive: 39.8 µM [inhibitor, single point]
13 | S=C(Nc1ccccc1)c1nc2ccccc2s1 | inconclusive: 8.91 µM [inhibitor, full curve]
14 | O=C(Oc1ccc(Br)cc1C(=S)N1CCOCC1)c1cccc([N+](=O)[O-])c1 | inconclusive: 28.2 µM [inhibitor, partial curve]
15 | CNCCOc1ccc(Cl)c(Cl)c1 | inconclusive: 35.5 µM [inhibitor, partial curve]
16 | CCOC(=O)N1CCN(Cc2c(F)cccc2F)CC1 | inconclusive: 28.2 µM [inhibitor, full curve, poor fit]
17 | Cc1ccc(NC(=O)CN2CCN(C(=O)c3ccco3)CC2)cc1S(=O)(=O)N(C)C | inconclusive: 15.8 µM [inhibitor, full curve, poor fit]
18 | N#Cc1c(-c2ccc(F)cc2)cc(-c2ccccc2)nc1SCC(=O)NCC(=O)O | inconclusive: 56.2 µM [inhibitor, partial curve, poor fit]
19 | COc1ccc(/C=N/n2c(-c3ccc(C)cc3)n[nH]c2=S)cc1OC | inactive
20 | CCC(C)c1ccc(OCCCCN2CCOCC2)cc1 (stereo not drawn) | inconclusive: 44.7 µM [inhibitor, partial curve, poor fit]
21 | Cc1ccc(NC(=O)CCn2cccc2)cc1C | inactive
22 | O=C(/C=C/c1cccnc1)c1ccc(NC(=O)c2cccc(Br)c2)cc1 | inconclusive: 39.8 µM [inhibitor, single point]
23 | O=C(Cc1ccccc1)Nc1ccnn1C1CCN(Cc2nccs2)CC1 | inactive

Row | Structure (SMILES) | Potency
24 | CNC(=S)N(Cc1ccc(OC)cc1)Cc1cc2ccc(C)cc2[nH]c1=O | inconclusive: 39.8 µM [inhibitor, single point]
25 | Cc1ccc2[nH]c(C(=O)Nc3ccccc3)cc2c1 | inactive
26 | COc1cc2cc(C(c3nnnn3C(C)(C)C)N3CCc4ccccc4C3)c(=O)[nH]c2cc1OC (stereo not drawn) | inconclusive: 89.1 µM [inhibitor, single point]
27 | Cc1cccc(N2CCC(N=CN(C)C)=N2)c1 | inactive
28 | CCCCC(=O)NC(c1cccc([N+](=O)[O-])c1)c1ccc2cccnc2c1O (stereo not drawn) | inactive
29 | Cc1cc2nc3s/c(=C/c4ccc(-c5ccccc5C(=O)O)o4)c(=O)n3c2cc1C | inconclusive: 25.1 µM [inhibitor, full curve]
30 | COCCNc1oc(-c2ccc(COc3ccc(OC)cc3)o2)nc1C#N | inconclusive: 17.8 µM [inhibitor, full curve]
31 | CCN(CC)C(=O)C1CCCN(Cc2ccc(OC)c(C)c2)C1 (stereo not drawn) | inconclusive: 44.7 µM [inhibitor, partial curve]
32 | Cc1nc2ccccc2c(=O)n1CCCn1ccnc1 | inconclusive: 39.8 µM [inhibitor, single point]
33 | COCc1cc(=O)n2[nH]c(-c3ccco3)cc2n1 | inactive
34 | O=C(CCc1ccc(O)c(O)c1)N/N=C/c1cc2c(cc1[N+](=O)[O-])OCO2 | inconclusive: 50.1 µM [inhibitor, partial curve]
35 | O=C(Nc1ccccc1)c1ccc(CN2CCC(Cc3ccccc3)CC2)cc1 | inactive
36 | CCN1C(=O)/C(=C2\C=Cc3cc(C)ccc3N2CC)OC1=S | inconclusive: 10 µM [inhibitor, full curve, poor fit]
37 | Cc1cccnc1NC(=S)Nc1ccc(Br)cc1Cl | inconclusive: 35.5 µM [inhibitor, partial curve]
38 | COc1ccc(N=C2C(=Nc3ccc(OC)cc3)N(c3ccc(OC)cc3)C(=S)N2c2ccccc2)cc1 | inconclusive: 3.55 µM [inhibitor, full curve]
39 | CCc1cc(-c2[nH]ncc2-c2ccc3c(c2)OCO3)c(O)cc1O | inconclusive: 15.8 µM [inhibitor, partial curve, poor fit]
40 | O=C(Nc1nc2nccc(-c3ccccc3)n2n1)c1ccccc1 | inactive
41 | CCN(CC(F)(F)C(F)F)S(=O)(=O)c1ccc(NC(=O)OC)cc1 | inconclusive: 6.31 µM [inhibitor, full curve]
42 | CCCN1C(=O)/C(=C/c2ccccc2OCc2ccc(C(=O)O)cc2)NC1=S | inactive
43 | CC(=O)c1ccc(N2CCN(c3nc4ccccc4c4nc(-c5cccc(C)c5)nn34)CC2)cc1 | inactive
44 | CCN1CCN(c2ccc(S(=O)(=O)N3CCCCC3)cc2NC(=O)/C=C/c2cccc(OC)c2OC)CC1 | inactive
45 | O=C(CSc1nnc2c(n1)[nH]c1ccc(F)cc12)NCc1ccc(F)cc1 | inconclusive: 89.1 µM [inhibitor, single point]
46 | CCOc1ccc(NC(=O)Cn2nc(SC)c(S(=O)(=O)c3ccccc3)c2N)cc1 | inconclusive: 89.1 µM [inhibitor, partial curve, poor fit]

Row | Structure (SMILES) | Potency
47 | O=C(Nc1cccc(S(=O)(=O)N2CCCCC2)c1)c1ccccn1 | inactive
48 | CCOC(=O)c1ccc(NC2=CC(=O)C(=O)c3ccccc32)cc1 | inconclusive: 44.7 µM [inhibitor, partial curve, poor fit]
49 | COc1ccc(NC(=O)CSc2nc(-c3ccccc3)[nH]c2-c2ccccc2)cc1OC | inconclusive: 44.7 µM [inhibitor, partial curve]
50 | CCN(CC)c1ccc(NC(=O)CN2CCN(S(=O)(=O)c3cc(Cl)ccc3OC)CC2)cc1 | inconclusive: 15.8 µM [inhibitor, full curve]
51 | O=C1C(=NO)CCc2ccccc21 | inconclusive: 39.8 µM [inhibitor, partial curve, poor fit]
52 | Nc1cc2c(cc1O)CCCC2 | inconclusive: 79.4 µM [inhibitor, single point]
53 | O=C(O)CCc1ccc(-c2ccc(Br)cc2)n1-c1cccc(O)c1 | inconclusive: 50.1 µM [inhibitor, partial curve, poor fit]
54 | Cc1sc2nc(COC(=O)c3ccc(N4CCCC(C)C4)c([N+](=O)[O-])c3)[nH]c(=O)c2c1C (stereo not drawn) | inconclusive: 25.1 µM [inhibitor, single point]
55 | CCCCOP(=O)(OCCCC)C1(NS(=O)(=O)c2ccccc2)C=CC(=O)c2ccccc21 (stereo not drawn) | inconclusive: 89.1 µM [inhibitor, single point]
56 | COc1cccc(CNC(=O)c2ccc(NC(=O)N3CCCCc4ccccc43)cc2)c1OC | inactive
57 | Cn1c(-c2cccc([N+](=O)[O-])c2)cnc1NCc1cccc([N+](=O)[O-])c1 | inconclusive: 17.8 µM [inhibitor, full curve]
58 | CCN(CC)c1ccc(NC(=O)CCCCCN2C(=O)c3ccccc3C2=O)cc1 | inconclusive: 35.5 µM [inhibitor, partial curve, poor fit]
59 | CCN(CC)S(=O)(=O)c1ccc2c(c1)N(CC(=O)N1CCN(c3ccc(Cl)cc3)CC1)C(=O)CO2 | inactive
60 | CC1=NN(C(=S)Nc2ccccc2)C(C)(C)C1 | inactive
61 | O=C(/C=C/c1ccco1)N(c1ccccn1)c1ccccn1 | active: 31.6 µM
62 | Cc1cc(C(=O)c2cccs2)c(N)s1 | inconclusive: 44.7 µM [inhibitor, partial curve, poor fit]
63 | Clc1ccc(CN2CCN(c3ncccn3)CC2)c(Cl)c1 | inconclusive: 25.1 µM [inhibitor, single point]
64 | O=S(=O)(/N=C(/NC(=S)Nc1ccccc1)c1ccccc1)c1ccc(Cl)cc1 | inconclusive: 25.1 µM [inhibitor, partial curve]
65 | O=S(=O)(O)c1cc(O)c2cc(Nc3ccccc3)ccc2c1 | active: 35.5 µM
66 | O=[N+]([O-])c1cc(-c2nnc(Nc3ccc(O)cc3)c3ccccc23)ccc1N1CCOCC1 | inconclusive: 15.8 µM [inhibitor, partial curve, poor fit]
67 | Cc1ccc(NS(=O)(=O)c2ccc(C(=O)N3CCN(c4ncccn4)CC3)cc2)cc1 | inconclusive: 89.1 µM [inhibitor, single point]
68 | Cc1sc(NC(=O)CS(=O)(=O)c2ccccc2)c(C(N)=O)c1C | inactive

From PubChem BioAssay AID540317 (National Center for Advancing Translational Sciences (NCATS), 2011)
